About 6,900 (2%) of roughly 340,000 compounds were called active. Rule as the data show it: active = inhibition above about 30%; inactive = below that, where a call was filed. The entries are a selection whose mix differs from that of the whole data set. Where no call is shown, the source filed none.
Molecular target: D(2) dopamine receptor (Homo sapiens) (UniProt P14416)
Assay: HTS Assay for Allosteric Antagonists of the Human D2 Dopamine Receptor: Primary Screen for Antagonists; also: 0% is about no effect
Conditions: HEK293 TREx D2 cells, calcium flux, dopamine EC80; at 10 µM; stronger effect = higher value
Outline: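 HEK293 T-REx D2 cells, tet-induced, calcium dye no-wash. Cpd pintool add, 180 s kinetic, then EC80 DA, 180 s kinetic. Ca flux read.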

UniProt P14416, sequence (P14416 whole entry, looked up): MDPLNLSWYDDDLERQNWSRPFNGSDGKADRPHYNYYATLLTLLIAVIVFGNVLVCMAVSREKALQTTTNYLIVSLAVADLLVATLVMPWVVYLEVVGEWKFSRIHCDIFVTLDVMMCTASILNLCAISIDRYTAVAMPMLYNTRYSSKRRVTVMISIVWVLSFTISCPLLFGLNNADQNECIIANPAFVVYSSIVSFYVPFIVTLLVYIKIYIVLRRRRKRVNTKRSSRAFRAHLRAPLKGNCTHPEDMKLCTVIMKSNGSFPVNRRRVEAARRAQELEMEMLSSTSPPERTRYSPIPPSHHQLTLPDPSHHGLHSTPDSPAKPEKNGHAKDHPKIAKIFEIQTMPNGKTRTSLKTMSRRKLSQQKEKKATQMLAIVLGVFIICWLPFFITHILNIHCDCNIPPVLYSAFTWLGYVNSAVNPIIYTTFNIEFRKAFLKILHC

How did the inhibition turn out when CC1CCN(S(=O)(=O)c2cc(C(=O)NCc3ccccc3)n(C)c2)CC1 was run?
Its inhibition is 16.8%.

For CCc1ccc(-n2nc(CO)c(C(=O)NCc3cccnc3)n2)cc1, which inhibition is on record?
The inhibition was 12.2%.

With O=C(c1ccc2c(c1)N(Cc1ccc(Cl)cc1)C(=O)c1ccccc1S2(=O)=O)N1CCN(Cc2ccccc2)CC1 as the molecule, how does the inhibition read?
Its inhibition is 4.72%.

With Cc1cc(C)cc(NC(=O)CCc2c(C)nc3c(c2C)c(=O)n(C)c(=O)n3C)c1 as the molecule, how does the inhibition read?
Its inhibition is 3.26%.

Which inhibition does the source give for Cc1ccc(CCNC(=O)CCn2nc(-c3ccc(Cl)cc3)ccc2=O)cc1 here?
The inhibition was 18.4%.

With CCN1CCN(C(=O)c2ccc3c(c2)c(C)c(C)n3Cc2ccccc2)CC1 as the molecule, how does the inhibition read?
Its inhibition is active: 37.5%.

How did the inhibition turn out when O=S(=O)(c1ccc(Br)cc1)c1nnn2c1nc(NCCc1ccccc1)c1sccc12 was run?
Its inhibition is -5.91%.

How did the inhibition turn out when Cc1nc2ccc(S(=O)(=O)NC(C(=O)N3CCN(c4cccc(Cl)c4)CC3)C(C)C)cc2s1 (stereo not given) was run?
Its inhibition is 23.6%.

Cc1ccc(-c2onc(C)c2C)cc1S(=O)(=O)Nc1cccc(Cl)c1C was tested. Which inhibition did it give?
Its inhibition is 0.32%.

Which inhibition does the source give for COc1ccc(N2C(=O)CCSC23C(=O)N(Cc2ccc(F)cc2)c2ccccc23)cc1 (stereo not given) here?
The inhibition was 9.46%.

CCc1ccc(C(=O)NC2=NC(c3cc(OC)ccc3OC)CC(=O)N2)cc1 (stereo not given) was tested. Which inhibition did it give?
The inhibition was 14.6%.

With CC(=O)Nc1ccc(NC(=O)C(c2ccccc2)N2Cc3ccccc3C2=O)cc1 (stereo not given) as the molecule, how does the inhibition read?
Its inhibition is 4.74%.

COC(=O)c1ccc(-c2nc(-c3ccc(OC)c(OC)c3)no2)cc1 was tested. Which inhibition did it give?
The inhibition was 2.79%.

O=C(Nc1ccc(-c2nc3cc(NC(=O)c4ccc(Cl)cc4)ccc3o2)cc1)c1ccc(Cl)cc1 was tested. Which inhibition did it give?
Its inhibition is 2.15%.

CCCN(CCC)C(=O)C1CCCN(S(=O)(=O)c2cc(Br)cc3c2N(C(=O)CC)CC3)C1 (stereo not given) was tested. Which inhibition did it give?
Its inhibition is -19.2%.

Which inhibition does the source give for COc1ccc(-c2cc(C(F)(F)F)n3nc(C(=O)Nc4sc5c(c4C(=O)OC(C)C)CCC(C)C5)cc3n2)cc1 (stereo not given) here?
Its inhibition is 11.3%.

For Cc1ccccc1C(=O)Nc1nnc(S(=O)(=O)N(C)c2ccc(Cl)cc2)s1, which inhibition is on record?
Its inhibition is 21.6%.

With COC(=O)c1sccc1S(=O)(=O)N(CC(=O)Nc1ccc(C)c(F)c1)c1ccc(C)c(C)c1 as the molecule, how does the inhibition read?
The inhibition was 5.99%.

Which inhibition does the source give for Cc1ccccc1Cn1c(=O)n(CCc2ccccc2)c(=O)c2sc3ccccc3c21 here?
The inhibition was 7.73%.

Which inhibition does the source give for Cc1ccc(NC(=O)c2sc3nc(-c4ccncc4)ccc3c2N)cc1 here?
Its inhibition is 2.57%.

How did the inhibition turn out when CCOc1ccc(S(=O)(=O)c2c(C(=O)c3ccc(C)c(C)c3)cnc3ccccc23)cc1 was run?
The inhibition was -12.9%.

How did the inhibition turn out when CCOC(=O)c1ccc(Nc2nnc(C(C)(C)C)c(=O)[nH]2)cc1 was run?
The inhibition was active: 53.1%.

How did the inhibition turn out when COc1cc(NC(=O)C(NS(=O)(=O)c2ccc3c(c2)CCCC(=O)N3)C(C)C)cc(OC)c1 (stereo not given) was run?
The inhibition was -2.06%.

How did the inhibition turn out when Cc1ccc(NC(=O)c2c(C)oc3ccc(O)c(CN(C)Cc4ccccc4)c23)c(C)c1 was run?
The inhibition was 2.31%.

For COc1ccc(OC)c(CNc2ncnc3c2nc2n3CCCC2)c1, which inhibition is on record?
Its inhibition is -4.76%.

How did the inhibition turn out when CCc1c(C)nc(SCc2nc(-c3ccccc3C)no2)[nH]c1=O was run?
Its inhibition is 2.11%.

CCc1ccc(CNC(=O)c2sc3nc[nH]c(=O)c3c2C)cc1 was tested. Which inhibition did it give?
The inhibition was -17.2%.

Which inhibition does the source give for O=C(COc1ccc(F)cc1)Nc1ccc(S(=O)(=O)N(Cc2ccccc2)c2ccccc2)cc1 here?
Its inhibition is -16.2%.

Which inhibition does the source give for O=c1cc(CSc2ccccc2)[nH]c2ccc(F)cc12 here?
Its inhibition is -6.7%.

COc1ccc(NC(=O)CCn2c(-c3ccc(F)cc3)cc(C(C)=O)c2C)c(OC)c1 was tested. Which inhibition did it give?
Its inhibition is -4.67%.

CCCNc1ncnc2c1c(-c1ccccc1)cn2-c1ccc(OCC)cc1 was tested. Which inhibition did it give?
The inhibition was 19.1%.

Which inhibition does the source give for CCCOc1ccc(C(=O)Nc2ccc(-c3cc4ccccc4oc3=O)c(C)c2)cc1 here?
Its inhibition is 0.979%.

How did the inhibition turn out when CCc1ccc(NC(=O)c2ccc(NS(=O)(=O)c3c(C)noc3C)cc2)cc1 was run?
The inhibition was -13.4%.

Which inhibition does the source give for CCCCCCCNC(=O)C1(CC2CC(c3ccc(Cl)cc3)=NO2)CCN(C(=O)c2cc(OCC)c(OCC)c(OCC)c2)CC1 (stereo not given) here?
The inhibition was active: 43.9%.

How did the inhibition turn out when CCc1cccc(C)c1NC(=O)c1cc(S(=O)(=O)N2CCCCCC2)cn1C was run?
The inhibition was 2.52%.

With O=C(NC1CC1)c1ccc(Cn2c(SCc3ccc(F)cc3)nc3cccnc32)cc1 as the molecule, how does the inhibition read?
Its inhibition is 0.0752%.

For COc1ccc(-c2cc(C(F)(F)F)nc(SCCC(=O)Nc3cccc(OC)c3)n2)cc1, which inhibition is on record?
Its inhibition is 16.9%.

With Fc1ccccc1/C=N/n1cc(-c2ccccc2)[nH]c1=S as the molecule, how does the inhibition read?
Its inhibition is active: 37.8%.

For Cc1ccc(Cl)cc1N1CCN(C(=O)c2nn(C)c3c2CS(=O)(=O)c2ccccc2-3)CC1, which inhibition is on record?
The inhibition was 1.31%.

With Cc1ccc(Cl)cc1NC(=O)c1cc(CN2CCCC2)on1 as the molecule, how does the inhibition read?
The inhibition was -0.542%.

COc1ccc(CCNC(=O)CCc2cn(Cc3ccc(F)cc3)c3ccccc23)cc1OC was tested. Which inhibition did it give?
The inhibition was -5.99%.

How did the inhibition turn out when Cc1ccc(-c2nc(S(=O)(=O)c3ccccc3)c(SCC(=O)NC3CCCCC3)o2)cc1 was run?
The inhibition was 11.3%.

Which inhibition does the source give for CC(C)CC(NC(=O)C1CCCCC1)C(=O)Nc1cccc(C(F)(F)F)c1 (stereo not given) here?
The inhibition was 4.23%.

For COc1ccccc1N1CCN(S(=O)(=O)CCNC(=O)COc2ccccc2F)CC1, which inhibition is on record?
Its inhibition is 13.4%.

With O=C(CCCn1c(=O)c2sccc2n(Cc2ccc(Cl)cc2)c1=O)NCc1ccc2c(c1)OCO2 as the molecule, how does the inhibition read?
Its inhibition is 14.7%.

How did the inhibition turn out when Cc1ccc(CNc2ncccc2-c2nc(-c3ccc(Cl)cc3)no2)cc1 was run?
The inhibition was -5.2%.

Which inhibition does the source give for CC1=C(c2ccc(Cl)cc2)S(=O)(=O)N=C1N1CCC(C(=O)NCCc2ccco2)CC1 here?
Its inhibition is -22.1%.

Which inhibition does the source give for CCOC(=O)c1ccccc1NC(=O)c1cc2c(s1)-c1ccccc1SC2 here?
Its inhibition is -0.335%.

How did the inhibition turn out when COc1ccc(Br)cc1CNC(=O)CCc1cn(Cc2ccc(C)cc2)c2ccccc12 was run?
The inhibition was 14.4%.

Which inhibition does the source give for COC(=O)c1sccc1S(=O)(=O)N1CCN(c2ccc(Cl)cc2)CC1 here?
Its inhibition is -6.81%.

With c1nc(COc2nsnc2N2CCOCC2)cs1 as the molecule, how does the inhibition read?
The inhibition was active: 36.2%.

For CCOC(=O)N1CCc2c(sc3c2c(=O)n(Cc2ccccc2)c(=O)n3CC(=O)Nc2ccc(F)cc2)C1, which inhibition is on record?
The inhibition was -16.5%.

With CNC(=O)CN1C(=O)COc2ccc(S(=O)(=O)N3CCCCCC3)cc21 as the molecule, how does the inhibition read?
Its inhibition is 9.67%.

CCN(CC)S(=O)(=O)c1ccc(OC)c(NC(=O)c2sc3ccccc3c2Cl)c1 was tested. Which inhibition did it give?
The inhibition was 4.53%.

For CN(c1ccc(F)cc1)S(=O)(=O)N1CCCC(C(=O)NCc2ccccc2Cl)C1 (stereo not given), which inhibition is on record?
The inhibition was -14%.

Which inhibition does the source give for CC1CN(C(=O)CCC(=O)N2CCN(c3cccc(C(F)(F)F)c3)CC2)c2ccccc2O1 (stereo not given) here?
The inhibition was active: 40.7%.

For Cc1ccc2c(c1)c1c(c(=O)n(Cc3ccccc3)c(=O)n1Cc1ccccc1F)n2C, which inhibition is on record?
The inhibition was -0.532%.

With Cc1cccc(NC(=O)c2oc3ccccc3c2NC(=O)c2cc(=O)c3ccccc3o2)c1 as the molecule, how does the inhibition read?
The inhibition was -11.6%.

How did the inhibition turn out when CCOc1ccc(N2CC(NC(=O)c3ccc(Cl)cc3)CC2=O)cc1 (stereo not given) was run?
Its inhibition is -28%.

For CCC(C)S(=O)(=O)c1oc(-c2cccs2)nc1S(=O)(=O)c1ccccc1 (stereo not given), which inhibition is on record?
Its inhibition is -19.8%.

Reference: PubChem BioAssay AID485344 (National Center for Advancing Translational Sciences (NCATS), 2010)
